Source: the supplement of paper PMC3334620
Whole data set: some 33,000 sequences, median “E-score (-0.5 to 0.5)” near -0.053, cut for the highest 2% near 0.37. The list shows a part of the results.

Biological target: Hap1 (UniProt P0CE41)
Assay: PBM E-score (8-mer binding enrichment) (E-score (-0.5 to 0.5)); higher = stronger / more preferred TF binding; most listed sequences are background and not binding sites
Details: protein concentration: 200 nM; construct: GST-DNA-binding domain
Method: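 Universal 'all 10-mer' protein binding microarrays (Agilent AMADID 015681) probed with GST-tagged S. cerevisiae TFs (full-length or DBD) made by in vitro transcription/translation (PURExpress), about 100-200 nM. Bound TF was detected with fluorescent anti-GST. Each ungapped 8-mer (which stands for itself and its reverse complement) is scored by the PBM enrichment score (E-score), a modified Wilcoxon-Mann-Whitney statistic from -0.5 to +0.5, computed with the Universal PBM Analysis Suite. Scale: above 0.35 generally sequence-specific binding.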

Chain of UniProt P0CE41 (P0CE41 whole entry): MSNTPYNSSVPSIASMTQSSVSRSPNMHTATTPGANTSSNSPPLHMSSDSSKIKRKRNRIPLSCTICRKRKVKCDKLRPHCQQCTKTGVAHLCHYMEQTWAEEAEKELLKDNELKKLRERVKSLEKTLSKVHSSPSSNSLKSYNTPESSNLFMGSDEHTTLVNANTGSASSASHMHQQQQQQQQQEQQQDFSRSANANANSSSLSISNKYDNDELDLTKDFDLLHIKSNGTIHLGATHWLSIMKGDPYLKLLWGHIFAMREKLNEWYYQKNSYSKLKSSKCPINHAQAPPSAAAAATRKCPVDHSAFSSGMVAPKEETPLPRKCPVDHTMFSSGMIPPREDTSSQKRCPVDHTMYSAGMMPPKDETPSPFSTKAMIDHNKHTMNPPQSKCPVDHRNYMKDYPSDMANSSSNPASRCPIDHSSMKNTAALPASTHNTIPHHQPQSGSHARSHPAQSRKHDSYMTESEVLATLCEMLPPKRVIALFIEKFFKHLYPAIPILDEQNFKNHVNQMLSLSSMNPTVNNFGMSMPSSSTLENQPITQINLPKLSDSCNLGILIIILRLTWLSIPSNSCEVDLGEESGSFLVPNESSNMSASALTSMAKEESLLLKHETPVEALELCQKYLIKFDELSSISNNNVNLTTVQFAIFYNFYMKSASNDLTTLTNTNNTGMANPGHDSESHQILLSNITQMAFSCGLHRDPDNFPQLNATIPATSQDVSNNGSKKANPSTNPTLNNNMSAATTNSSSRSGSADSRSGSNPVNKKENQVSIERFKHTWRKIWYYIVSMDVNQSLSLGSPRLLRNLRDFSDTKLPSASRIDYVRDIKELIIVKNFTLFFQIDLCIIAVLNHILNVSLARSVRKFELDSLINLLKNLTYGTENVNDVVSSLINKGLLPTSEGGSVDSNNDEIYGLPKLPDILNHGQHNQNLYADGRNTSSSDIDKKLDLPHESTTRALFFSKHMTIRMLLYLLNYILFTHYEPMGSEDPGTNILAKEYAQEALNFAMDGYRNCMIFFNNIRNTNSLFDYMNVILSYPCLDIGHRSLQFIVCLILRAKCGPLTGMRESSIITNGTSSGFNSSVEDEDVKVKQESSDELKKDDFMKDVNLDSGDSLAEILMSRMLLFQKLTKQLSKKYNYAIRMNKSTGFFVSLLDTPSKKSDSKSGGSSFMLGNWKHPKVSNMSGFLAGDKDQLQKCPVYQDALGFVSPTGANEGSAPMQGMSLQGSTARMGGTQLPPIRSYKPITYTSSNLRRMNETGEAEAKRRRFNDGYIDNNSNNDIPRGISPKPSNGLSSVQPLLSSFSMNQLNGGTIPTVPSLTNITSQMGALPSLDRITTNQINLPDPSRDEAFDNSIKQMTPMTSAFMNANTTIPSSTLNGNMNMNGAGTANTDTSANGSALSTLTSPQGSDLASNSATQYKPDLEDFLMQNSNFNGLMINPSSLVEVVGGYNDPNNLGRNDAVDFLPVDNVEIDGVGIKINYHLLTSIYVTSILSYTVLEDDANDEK

Row | Sequence | PBM E-score
1 | TCGCATCA | 0.162
2 | CAGTAGTA | -0.161
3 | ACCACCAA | -0.0355
4 | ATGTGAAA | -0.1
5 | AAGTGCTC | -0.152
6 | CTCAGTGA | -0.355
7 | GCTGTAGA | -0.08
8 | ACAATTCT | -0.199
9 | CTAACAGC | 0.0711
10 | TCGTCCCA | -0.0952
11 | ATAGCCGA | 0.372
12 | AACGCAGT | -0.0799
13 | ATTTGTAA | -0.162
14 | CAGCCCTA | -0.0376
15 | AATATATA | 0.134
16 | GGGTTCAC | 0.0978
17 | GAGTATCC | 0.0516
18 | ATGCTGTA | -0.121
19 | CATAGACC | 0.0268
20 | GGGATCTA | 0.134
21 | AGTAATGG | -0.145
22 | ATGGTTGG | 0.027
23 | AGGACCCG | 0.218
24 | ATTTCGTG | -0.128
25 | GAACCTTA | 0.155

Row | Sequence | PBM E-score
26 | CTTCTACA | -0.154
27 | CGCCAACA | 0.00082
28 | CTTGTAAA | -0.0806
29 | GCAGGGAA | -0.0498
30 | AAAACCGT | 0.16
31 | AGCTTCCT | -0.105
32 | AATCGGAA | 0.364
33 | GGGGAGGA | 0.093
34 | GTACCATA | -0.15
35 | AGAGGTTG | -0.271
36 | AAATAGAC | -0.0583
37 | CGTACGTC | -0.147
38 | ATAAAGCG | 0.0758
39 | AGTTCGCG | 0.0958
40 | AAGCAACA | -0.218
41 | CAGGGTGC | -0.22
42 | CCGTCCGC | 0.231
43 | GATGAGAA | -0.198
44 | AACAGAGG | -0.154
45 | ACTCACAC | -0.0538
46 | GTCCAAAC | -0.191
47 | CCAGGACA | -0.0915
48 | TATGTTGA | -0.119
49 | GACGTCCA | -0.107
50 | ACGCAATA | 0.12

Row | Sequence | PBM E-score
51 | GATGGTCC | 0.0894
52 | GCTCGAAC | -0.0749
53 | AGTCAAGG | -0.234
54 | ACACTTAC | -0.163
55 | GGCTCCAC | -0.155
56 | GCGAGGAA | 0.0678
57 | ATCCGCAT | 0.289
58 | CTAGAACC | -0.132
59 | GGGCCGAA | 0.311
60 | AAACTTGT | -0.122
61 | CGATCTCA | -0.0152
62 | CCCCGAGG | 0.364
63 | CGGTTAGA | 0.193
64 | CATGAAGC | 0.107
65 | AACGCCCG | 0.27
66 | ACGTTCTG | -0.0544
67 | ACATTGCA | -0.123
68 | CATTCCAG | -0.25
69 | GGAACCCA | 0.0578
70 | AGTGTGGC | 0.0217
71 | ATGTGGCC | 0.082
72 | CTAACCGA | 0.176
73 | CTCTCTGA | -0.269
74 | CATTGTTA | -0.159
75 | CCTTCGCG | 0.0859

Row | Sequence | PBM E-score
76 | CGCATGGA | -0.063
77 | CATTATGG | 0.0179
78 | ATCTTGTC | 0.0305
79 | GACTGGCA | -0.149
80 | AGCAATCG | -0.197
81 | CAATTGGG | -0.17
82 | AGGATTGA | -0.0926
83 | CTGGGCGC | -0.136
84 | ACCCAATC | 0.089
85 | AGAACCAA | -0.265
86 | ATGGCCGG | 0.315
87 | CCCGCTCA | 0.0705
88 | AGAAGGAG | -0.248
89 | GAGTGATA | -0.162
90 | AACGCCAA | 0.0354
91 | CGGCAACC | 0.179
92 | AGGGAAAT | -0.0971
93 | ACTACTTC | 0.142
94 | CAGTCTAC | -0.135
95 | CGCTATGC | 0.0649
96 | GATATATA | 0.198
97 | TGCTCTAA | -0.0971
98 | AGGCGCAG | -0.276
99 | GGCTTCTA | 0.0205
100 | ACACCACC | -0.0508

Row | Sequence | PBM E-score
101 | GCCATTCC | 0.151
102 | ATTCTGTG | 0.0384
103 | GACCGCTA | 0.269
104 | TAACATAA | -0.0229
105 | CCTTCATC | 0.0228
106 | GGTATAAA | 0.2
107 | GAATGCTA | -0.11
108 | ATACGGTC | 0.0985
109 | ATTGCGCA | 0.0389
110 | ATTGGTTC | -0.0235
111 | GGACTCGA | -0.0414
112 | CGAAGCTC | 0.0709
113 | TACCACGA | -0.173
114 | CAAAACCG | 0.155
115 | GATCGAGA | -0.0583
116 | ATGCAGCC | -0.175
117 | AGACAGAG | -0.243
118 | CGGAATGA | 0.263
119 | AAGCGAGG | 0.0558
120 | CGACACAC | -0.0393
121 | CAAGCGTG | -0.122
122 | TCTATACA | -0.307
123 | GACTAAAC | -0.11
124 | CGACTGAA | 0.0523
125 | CTGTACTC | -0.0231

Row | Sequence | PBM E-score
126 | ACCCCCCA | -0.21
127 | CGCTCCGA | 0.324
128 | ACGCTTCC | 0.0365
129 | ACAATGGA | 0.0233
130 | GAAAGATA | -0.0938
131 | GGTGGCCA | -0.136
132 | AATCCGAC | 0.363
133 | CGTACTAA | 0.033
134 | AGTGGGCG | 0.0181
135 | GGTACCTA | -0.1
136 | CGATTAGA | 0.0369
137 | CCCACAGA | -0.333
138 | GTGGTGGA | -0.0266
139 | ATCAGATA | -0.173
140 | CGGATAGA | 0.294
141 | AGACTAGG | -0.296
142 | ATCTTAGG | -0.298
143 | AACCTCGT | 0.0223
144 | AGCTTTAC | -0.128
145 | AGGAAGAA | -0.149
146 | GAAAGAAC | 0.0114
147 | ACGGGGAC | 0.159
148 | CGTTGACA | -0.187
149 | GCCCAGCA | -0.0648
150 | AGTGAGAG | -0.175

Row | Sequence | PBM E-score
151 | CAGAGACG | -0.0221
152 | AGATAACC | 0.072
153 | ACTACCAA | -0.202
154 | ACCGCGGA | 0.361
155 | ATCTTCCA | -0.147
156 | GCGACTAA | 0.04
157 | CGGTTGTC | 0.107
158 | ATATCTAC | 0.0684
159 | GCCTGTAA | -0.00046
160 | CCCAGGCC | -0.143
161 | AGCTCGAC | -0.227
162 | ATTACCTA | 0.0232
163 | AGTTATAG | -0.184
164 | ACGTTTGA | -0.0528
165 | CTTGGCAC | -0.179
166 | GCCAGAAC | -0.186
167 | CGGGTAGC | 0.11
168 | ATATAGCC | 0.0706
169 | CTTGGCCA | -0.227
170 | ACGGATAC | 0.3
171 | CTTTGACA | -0.247
172 | CACCAGCC | -0.0164
